Source: paper PMC4336329 (PLoS ONE, 2015)
The campaign covered roughly 310,000 compounds. About 14,000 (4.5%) showed an effect of 50% or more. Effects have a minus sign here. This is one part of the list.

The compounds below were run against human ether-à-go-go-related gene (hERG) potassium channel (human, UniProt Q12809) (assay: primary screen, population patch clamp on CHO cells stably expressing hERG).
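Note: peak tail current of the secondary pulse compared with the same well before compound.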

human ether-à-go-go-related gene (hERG) potassium channel, sequence (Q12809 whole entry, looked up): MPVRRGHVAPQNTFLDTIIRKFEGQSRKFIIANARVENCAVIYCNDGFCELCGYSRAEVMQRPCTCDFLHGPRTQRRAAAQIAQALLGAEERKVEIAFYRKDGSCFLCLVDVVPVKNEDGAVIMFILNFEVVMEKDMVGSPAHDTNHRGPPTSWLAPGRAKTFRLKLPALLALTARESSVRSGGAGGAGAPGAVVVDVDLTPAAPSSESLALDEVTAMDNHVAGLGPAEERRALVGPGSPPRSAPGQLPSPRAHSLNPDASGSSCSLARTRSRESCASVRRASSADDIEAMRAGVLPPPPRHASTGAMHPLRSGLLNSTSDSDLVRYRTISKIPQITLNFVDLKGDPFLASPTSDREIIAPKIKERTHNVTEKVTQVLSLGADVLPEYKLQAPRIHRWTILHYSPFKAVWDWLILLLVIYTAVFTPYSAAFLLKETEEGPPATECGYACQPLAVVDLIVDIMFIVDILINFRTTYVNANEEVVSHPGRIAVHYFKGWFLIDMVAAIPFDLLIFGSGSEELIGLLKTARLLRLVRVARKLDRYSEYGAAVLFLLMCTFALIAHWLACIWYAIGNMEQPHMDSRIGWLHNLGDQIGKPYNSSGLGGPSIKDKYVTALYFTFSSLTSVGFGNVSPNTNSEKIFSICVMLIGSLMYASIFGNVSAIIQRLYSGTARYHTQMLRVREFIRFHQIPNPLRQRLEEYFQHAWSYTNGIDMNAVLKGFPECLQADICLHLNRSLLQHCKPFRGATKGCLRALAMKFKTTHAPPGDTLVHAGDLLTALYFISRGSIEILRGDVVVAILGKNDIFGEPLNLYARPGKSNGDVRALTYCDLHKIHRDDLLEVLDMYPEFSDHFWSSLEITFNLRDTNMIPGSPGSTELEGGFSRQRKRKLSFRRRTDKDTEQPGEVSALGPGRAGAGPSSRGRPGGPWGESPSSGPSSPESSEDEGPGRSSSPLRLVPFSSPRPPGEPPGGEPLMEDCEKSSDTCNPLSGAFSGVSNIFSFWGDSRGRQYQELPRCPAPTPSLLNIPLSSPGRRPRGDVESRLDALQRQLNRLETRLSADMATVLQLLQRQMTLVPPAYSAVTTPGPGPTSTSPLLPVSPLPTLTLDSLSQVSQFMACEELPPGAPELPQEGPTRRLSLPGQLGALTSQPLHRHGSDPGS

First: COCCCNC(=O)/C(C#N)=C/c1c(N2CCN(c3ccccc3)CC2)nc2c(C)cccn2c1=O
Second: CCCC(=O)Nc1ccccc1N1CCN(C(=O)c2ccccc2)CC1
The “hERG current change (%, negative = inhibition) at 10uM” value of the first is higher: -7.32% for the first, -46% for the second.

Going from `Cc1cc(=O)oc2cc(OCC(=O)N3CCC(C(=O)O)(c4ccccc4)CC3)ccc12` to `O=C(Cn1cnc2c(cnn2-c2ccccc2)c1=O)N1CCOCC1`, the “hERG current change (%, negative = inhibition) at 10uM” value falls from 8.8% to 5.88%.

Going from `O=C(CN1C(=O)C2CCCCC2C1=O)OCn1nnc2ccccc2c1=O` (centres unmarked) to `O=C(O)c1ccccc1C(=O)NC1CCCCNC1=O` (centres unmarked), the “hERG current change (%, negative = inhibition) at 10uM” value rises from 5.19% to 9.01%.

Compared with `CC(=O)c1c(C)[nH]c(C(=O)NCCC2=CCCCC2)c1C`, `Cc1ccc(-n2nc(C(=O)NN)c(C)c(C#N)c2=O)cc1Cl` is higher in “hERG current change (%, negative = inhibition) at 10uM” value: 4.77% for the first, 14.5% for the second.

First: O=C(NCc1ccccn1)c1nnc(Cc2ccc(Cl)cc2)o1
Second: O=C(COc1ccc2c(c1)CCC2)NCc1ccc(Cl)cc1
The “hERG current change (%, negative = inhibition) at 10uM” value of the first is lower: -6.71% for the first, 14.5% for the second.

First: COC(=O)c1cc(NC(=O)Cc2cccs2)cc(C(=O)OC)c1
Second: COc1ccc(NC(=O)Cc2cccs2)c(OC)c1
The “hERG current change (%, negative = inhibition) at 10uM” value of the first is higher: 21% for the first, -0.294% for the second.

Going from `NC(=O)Cn1cnc2c(nnn2-c2cccc(Cl)c2)c1=O` to `Nc1nnc(SCC(=O)c2cccc([N+](=O)[O-])c2)s1`, the “hERG current change (%, negative = inhibition) at 10uM” value falls from 7.1% to -1.84%.

Compared with `COc1cc(/C=C2\C(=O)NC(=O)N(c3ccccc3)C2=O)cc(OC)c1O`, `COc1ccc2c(c1OC)C(=O)N(c1ccc(OCc3ccccc3)cc1)C2=O` is higher in “hERG current change (%, negative = inhibition) at 10uM” value: 0.633% for the first, 17.3% for the second.

First: Cc1cc(=O)c(C(=O)O)cn1Nc1ccc(Cl)cc1
Second: Cc1nn(C)c(C)c1NS(=O)(=O)c1ccc(Cl)cc1
The “hERG current change (%, negative = inhibition) at 10uM” value of the first is higher: 7.39% for the first, 4.66% for the second.

First: O=C(N1CCCCC1)N1CCC(c2nc3ccccc3[nH]2)CC1
Second: CC(C)(C)NC(=O)CSc1nc2cccnc2n1C1CCCCC1
The “hERG current change (%, negative = inhibition) at 10uM” value of the first is lower: -2.64% for the first, -2.41% for the second.

Compared with `COc1ccccc1NC(=O)c1sc(NC(=O)c2ccco2)c(C#N)c1C`, `Cc1ccccc1NC(=O)Nc1nc2ccc(S(C)(=O)=O)cc2s1` is lower in “hERG current change (%, negative = inhibition) at 10uM” value: 17.7% for the first, -2.53% for the second.

Going from `C/C(=N\NC(=O)c1nnn(-c2nonc2N)c1CN(C)c1ccccc1)c1ccccn1` to `CCOc1ccccc1NC(=O)Nc1ccccn1`, the “hERG current change (%, negative = inhibition) at 10uM” value falls from 24.5% to -7.36%.

Compared with `COc1ccc(CCNC(=O)C(=O)NCC2OCCN2S(=O)(=O)c2cc(F)ccc2F)cc1OC` (centres unmarked), `CCCOc1ccc(C(=O)NNC(=O)c2cccc(S(=O)(=O)N3CCN(C(C)=O)CC3)c2)cc1OC` is lower in “hERG current change (%, negative = inhibition) at 10uM” value: -2.83% for the first, -13.8% for the second.

Going from `CCc1nnc(NC(=O)c2ccc(OC)c(S(=O)(=O)N3CCCC3)c2)s1` to `COc1cccc(CNC(=O)N2CCN(S(=O)(=O)c3ccc(C)cc3)CC2)c1`, the “hERG current change (%, negative = inhibition) at 10uM” value rises from -14.1% to 16.3%.

Going from `CCCCCCCC(=O)Nc1cc(C(=O)NCCC)ccc1N1CCC2(CC1)CC(c1cccc(Br)c1)=NO2` to `CCCCCCCNC(=O)C1(CC2CC(c3ccc(Cl)cc3)=NO2)CCN(C(=O)CCCCCBr)CC1` (centres unmarked), the “hERG current change (%, negative = inhibition) at 10uM” value falls from 18% to -79%.

Compared with `O=C(NCCO)c1cccc(Cl)c1`, `CC(C)C(=O)Nc1ccc2c3c(cccc13)CC2` is lower in “hERG current change (%, negative = inhibition) at 10uM” value: 18.8% for the first, -16.1% for the second.

Compared with `CCn1c(Cc2ccc(OC)cc2)nnc1SCC(=O)Nc1ccc(N2CCOCC2)cc1`, `Cc1nnc(NC(=O)CSc2nnc(C)n2Cc2ccccc2)s1` is higher in “hERG current change (%, negative = inhibition) at 10uM” value: -4.99% for the first, 17.7% for the second.

First: Cc1c(-c2cc(C(=O)O)c3ccccc3n2)cnn1C
Second: Cc1nc(NC(=O)c2csc3ccccc23)sc1C
The “hERG current change (%, negative = inhibition) at 10uM” value of the first is higher: 8.52% for the first, -3.35% for the second.

Going from `CC1(c2nnc(-c3ccc(F)cc3)o2)CC(c2ccc(F)cc2)=NO1` (centres unmarked) to `Cc1ccc(Nc2c(N)c(=O)oc3ccccc23)cc1`, the “hERG current change (%, negative = inhibition) at 10uM” value falls from -8.82% to -17.2%.

First: CC(OC(=O)C1CCCCC1)C(=O)Nc1ccc(S(N)(=O)=O)cc1 (centres unmarked)
Second: CC(=O)N[C@@H](C)C(=O)N1CCN(S(=O)(=O)c2ccc(Cl)cc2)CC1
The “hERG current change (%, negative = inhibition) at 10uM” value of the first is higher: -7.15% for the first, -8.67% for the second.

First: Cc1ccc(Cn2cccc(NC(=O)NC3CCCCC3)c2=O)cc1
Second: Cc1cc(NC(=O)CCC(=O)N(CC(=O)NC2CCCC2)c2ccc(Cl)cc2)no1
The “hERG current change (%, negative = inhibition) at 10uM” value of the first is higher: -1.87% for the first, -16.7% for the second.

Compared with `CCn1c(=O)c2cc(S(=O)(=O)NCCOc3ccccc3)ccc2n(CC)c1=O`, `CC(=O)c1sc(-c2ccccc2)cc1NS(=O)(=O)c1ccc(C)cc1` is lower in “hERG current change (%, negative = inhibition) at 10uM” value: 7.08% for the first, 1.88% for the second.

Going from `Cc1cc(-n2c(C)cc(C(=O)CSc3nnnn3-c3ccccc3)c2C)no1` to `CCOC(=O)c1cc2c(=O)n3ccccc3nc2n(C(C)C)c1=NC(=O)c1c(-c2ccccc2Cl)noc1C`, the “hERG current change (%, negative = inhibition) at 10uM” value rises from -21.3% to 24.3%.

Compared with `CCCCc1oc2c(c(=O)c1C)C(=O)CC(c1ccccc1)C2` (centres unmarked), `CCOC(=O)C1=C(C)NC2=C(C(=O)CC(C)(C)C2)C1c1coc2ccccc2c1=O` (centres unmarked) is higher in “hERG current change (%, negative = inhibition) at 10uM” value: -59.8% for the first, 5.08% for the second.

Compared with `Cc1nn(C(C)C(=O)NCc2ccc(Cl)cc2)c(=O)c2cc3occc3n12` (centres unmarked), `Cc1ccc(CNC(=O)CCc2c(C)nc3ncnn3c2C)cc1` is lower in “hERG current change (%, negative = inhibition) at 10uM” value: 2.59% for the first, -4.93% for the second.

Going from `CN1C(=S)SC(N(O)C=C2C=CC(=O)C=C2)C1(C)C` (centres unmarked) to `Cc1cnc(CN(C)C(=O)C2CCC(=O)N(CCc3ccccc3)C2)[nH]1` (centres unmarked), the “hERG current change (%, negative = inhibition) at 10uM” value rises from 12.3% to 17.1%.

Compared with `COc1cc2c(cc1OC)C(C(=O)Nc1ccc(F)c(Cl)c1)CC(=O)N2` (centres unmarked), `COc1ccc(OC)c(S(=O)(=O)Nc2ccc3c(c2)n(C)c(=O)n3C)c1` is lower in “hERG current change (%, negative = inhibition) at 10uM” value: 15.3% for the first, 1.61% for the second.

First: Cc1cc(NC(=O)CCC(=O)N(Cc2cccs2)C(C(=O)NC2CCCC2)c2cccnc2)no1 (centres unmarked)
Second: CC(=O)Nc1ccc(N(CC(=O)NC2CCCCC2)C(=O)Cn2nnc(-c3ccccc3)n2)cc1
The “hERG current change (%, negative = inhibition) at 10uM” value of the first is higher: 8.58% for the first, 6.79% for the second.

Compared with `COc1ccc[nH]c1=O`, `COc1ccc(N/C=C/C(=O)C(C)(C)C)cc1` is higher in “hERG current change (%, negative = inhibition) at 10uM” value: -23.5% for the first, 1.29% for the second.

Compared with `COC(=O)C1C2C=CC3(CN(CC4CCCO4)C(=O)C13)O2` (centres unmarked), `O=C(NCC1CCCO1)C1CCCN1C(=O)Nc1ccc(Cl)c(Cl)c1` (centres unmarked) is lower in “hERG current change (%, negative = inhibition) at 10uM” value: 23% for the first, 12% for the second.

First: Cc1ccnc(NC2(C(F)(F)F)N=C(c3ccccc3)NC2=O)c1 (centres unmarked)
Second: CCc1cccc(C)c1Nc1nc2ccccc2n2cnnc12
The “hERG current change (%, negative = inhibition) at 10uM” value of the first is higher: 7.41% for the first, -13.7% for the second.

First: CCOC(=O)NC(=O)/C(C#N)=C\c1ccccc1
Second: COc1cc(NC(=O)COC(=O)CC(NC(C)=O)c2ccccc2)cc(OC)c1 (centres unmarked)
The “hERG current change (%, negative = inhibition) at 10uM” value of the first is higher: 13.4% for the first, 4.45% for the second.

Going from `O=S(=O)(c1ccc(Cl)cc1)c1nc(-c2ccccc2F)oc1NCCN1CCOCC1` to `CCOc1ccc([C@@H]2CC=C(C(=O)O)[C@H](c3ccc(Cl)cc3)N2S(=O)(=O)c2ccc(C)cc2)cc1`, the “hERG current change (%, negative = inhibition) at 10uM” value rises from -67% to -4.99%.

Compared with `CCn1nnc(NC(=O)c2ccc([N+](=O)[O-])o2)n1`, `CC(O)CNc1ccc(-c2n[nH]c(=O)c3ccccc23)cc1[N+](=O)[O-]` (centres unmarked) is higher in “hERG current change (%, negative = inhibition) at 10uM” value: 6.65% for the first, 8.45% for the second.

Going from `CC/C(O)=C(\C#N)c1nnc2n1CCCCC2` to `CC(CCc1ccccc1)NC(=O)C1CCN(c2nnc(-n3cccc3)s2)CC1` (centres unmarked), the “hERG current change (%, negative = inhibition) at 10uM” value falls from 18.5% to -13.2%.

Going from `C/C(=C\C#N)n1nc(C)cc1N` to `Cc1ccnc2nc(C(=O)OCC(=O)NC(=O)NCc3ccco3)nn12`, the “hERG current change (%, negative = inhibition) at 10uM” value rises from 14.7% to 17.1%.

Going from `CSCCCNC(=S)N1CCN(S(=O)(=O)c2cccc(C(F)(F)F)c2)CC1` to `Cc1ccc(S(=O)(=O)N2CCN(S(=O)(=O)N3CCC(C)CC3)CC2)cc1C`, the “hERG current change (%, negative = inhibition) at 10uM” value rises from 5.07% to 12.9%.

First: O=C1C2C3C=CC(C3)C2C(=O)N1/N=C/c1cn(Cc2ccccc2)c2ccccc12 (centres unmarked)
Second: CN(C(=O)COC(=O)CSc1cc(Cl)ccc1Cl)c1c(N)n(Cc2ccccc2)c(=O)[nH]c1=O
The “hERG current change (%, negative = inhibition) at 10uM” value of the first is higher: 2.37% for the first, -0.021% for the second.

First: CCCCC1N2CC3([N+](=O)[O-])CN1CC([N+](=O)[O-])(C2)C3(C)C (centres unmarked)
Second: Cc1cccc(-c2c3c(=O)n(C)c(=O)n(C)c3cn2C2CCCCC2)c1
The “hERG current change (%, negative = inhibition) at 10uM” value of the first is lower: -2.92% for the first, 14.8% for the second.

First: Cc1ccccc1-n1ncc(C(C)NS(=O)(=O)c2ccccc2Cl)c1C (centres unmarked)
Second: Cc1ccc(Oc2ncccc2NC(=O)CC(CC(=O)O)c2ccccc2)c2c1CCC2 (centres unmarked)
The “hERG current change (%, negative = inhibition) at 10uM” value of the first is higher: 12.8% for the first, -3.27% for the second.

Going from `N#Cc1c(-c2ccco2)cc(C2CC2)nc1SCC(=O)c1ccccc1` to `C[C@@H]1CCC(=O)N(CC[C@H](Sc2ccc(Br)cc2)c2ccccc2)CC1`, the “hERG current change (%, negative = inhibition) at 10uM” value falls from 17.4% to 5.94%.

Compared with `Cc1c(C(=O)O)sc2[nH]c(=O)n(Cc3ccccc3)c(=O)c12`, `CCCCn1c(N)c(N(CCOC)C(=O)c2cccc(N3C(=O)c4ccccc4C3=O)c2)c(=O)[nH]c1=O` is lower in “hERG current change (%, negative = inhibition) at 10uM” value: 24.6% for the first, 20.8% for the second.

Compared with `COc1ccc2[nH]c3c(c2c1)CCNC3C1CC=C(C)CC1.Cl` (centres unmarked), `O=C(c1ccc2c(c1)OCO2)N1CCC2(CC1)Oc1ccc(F)cc1C(=O)C21CC(c2cccnc2)=NO1` (centres unmarked) is higher in “hERG current change (%, negative = inhibition) at 10uM” value: -22.2% for the first, -17.9% for the second.
